Experimental data from patent US12116397B2, “IL-IR-I binding polypeptide” (Swedish Orphan Biovitrum AB (publ), priority 2017, dated 2024).

Target: T1, hIL-1R-I (Homo sapiens, UniProt P14778)
T1 construct: purchased R&D Systems 269-1R/CF
T1 sequence (P14778 18-569): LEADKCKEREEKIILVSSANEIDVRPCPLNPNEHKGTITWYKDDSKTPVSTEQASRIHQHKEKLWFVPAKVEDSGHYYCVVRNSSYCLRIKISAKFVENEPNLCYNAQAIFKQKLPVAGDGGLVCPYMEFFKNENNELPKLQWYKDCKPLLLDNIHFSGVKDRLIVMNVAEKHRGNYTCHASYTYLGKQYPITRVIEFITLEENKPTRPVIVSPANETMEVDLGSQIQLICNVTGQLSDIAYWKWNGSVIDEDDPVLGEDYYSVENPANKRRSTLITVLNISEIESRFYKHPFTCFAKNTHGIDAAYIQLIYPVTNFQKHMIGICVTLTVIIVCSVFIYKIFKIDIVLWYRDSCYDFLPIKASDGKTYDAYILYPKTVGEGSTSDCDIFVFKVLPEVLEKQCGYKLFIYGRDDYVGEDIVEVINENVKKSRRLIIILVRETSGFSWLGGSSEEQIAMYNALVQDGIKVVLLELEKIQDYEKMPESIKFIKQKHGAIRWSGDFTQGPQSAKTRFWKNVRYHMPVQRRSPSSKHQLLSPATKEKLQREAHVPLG
Assay: Biacore affinity/kinetic analysis of His6-tagged Z variants, human IL-1R-I
Format: binding
Conditions: His6-Z polypeptides binding to human IL-1R-I, Biacore, Table 19

koff: 0.0044 s⁻¹ | kon: 3e+07 M⁻¹ s⁻¹ | Kd (read-out: KD): 0.15 nM
B1: Z18814: Z variant differing from Z16065 only in position X5 of the BM (isoleucine) (protein)
chain: AQHDEALEVDAKYAKEVEEIQMEIFALPNLTRRQYTAFIRKLLDDPSQSSELLSEAKKLNDSQAPKVDYVLAEAKVLANRELDKYGVSDYYKNLINNAKTVEGVKALIDEILAALPYVPG
